The chains are these.
B1: LINE1-mini (parent)
chain: GGCAGAGCUCAACACAGCGUGGCAAAGUGGCUGUGGCUAGACUGCC

Read counts are not given, so values of variants with three or more changes are uncertain.

In this data set the parent is B1. Briefly: self-cleavage, relative activity (ratio to wild type); higher = more cleavage; in vitro, sequencing; the parent is a self-cleaving ribozyme.
On to GGCAGAGCUCAACACAUCGAGGCAAAGUGGCUGAGACUAGACUGCC, for which the self-cleavage was found to be 0.01.

For GGCAGAGGCCAACACAGCGUGGCAAAGUGCCUGUGGCUAGACUGCC, the self-cleavage was found to be 0.01.

For the variant CGCAGAGCUCAACACAGCUUGGCAAAGUGGCUGUGGGUAGACAGCA, the self-cleavage amounted to 0.

For GGCAGAUCUCAACACAGCGUGGCAAAGUGGGUGUCGCUUAACUGCC, the self-cleavage amounted to 0.03.

With GGCAAAGCUCAACACAGCGUGGCAAAUGGGCUGUGGCUAGACUGCC, the self-cleavage came out at 0.16.

Regarding GGCAGAGCUCAACACAGUGUGGCAAAGUGGGUGUGGCUAGACAGCC, the self-cleavage stood at 0.12.

Consider GGCAGAGCUCAACACAGCCUAGCAAAUUGGCUGUGGCUAGUCCGCC, for which the self-cleavage was found to be 0.18.

Take GGCAGAGCUCAACACAGCGUGGGAAAGUGGCUGUGGCUAGAAUGUC: the self-cleavage stood at 0.3.

As to GGCAGAGCUCAAAAUAGCGUGGCAAAGUGGCUGUGGGUAGACUGCC, the self-cleavage turned out to be 0.07.

On to GGCAGAGCUUAACACAGCGUGGCAAAGUGGCUUUCGCUAGACUGCC, for which the self-cleavage was found to be 0.05.

GGCAGAACUAAACACAGCGUGGCAAGGCGGCUGUGGCUAGACUGCC: the self-cleavage is 0.5.

Turning to GACUGAGGUCAACACAGCGUGGUAAACUGGCGGUGCCUAGACUGCC, the self-cleavage is 0.06.

As for GGCAGAGCACAACACAGCGUCGCAAAUUGGCUGUUGCUCGACUGCC, the self-cleavage stood at 0.04.

On to GGUAGAGCUCAACACAGUGUGGCAAAGUGGCUGUUGCGAGACUGCC, for which the self-cleavage came out at 0.02.

Regarding GGCAGAGCUCAACACAGCGUGGCAAAGUGGAUGUGGAUCGACUGCC, the self-cleavage turned out to be 0.74.

Turning to GGCAUAGCCCAACACAGCGUGGCAAAUUGACUGUGGCUAGACUGUU, the self-cleavage was found to be 0.04.

Consider GGCAGAGCGCAAAACAGCGUGGUAAAGGGGCUGUGGCCAGACUGCC, for which the self-cleavage is 0.1.

For GGUAGAGCUCAACACAGCGUGUCGAAGUGACUGUGGCUAGACUGCC, the self-cleavage is 0.73.

GGCAGAGCUCAACACAGCGUGGCAAAGAUGCUGUAGUUAGACUGCC: the self-cleavage was determined as 0.02.

GGAAGAUCUCAACACAUCGUGGCAAAGUGGCUGGGGCUAGACUGCC: the self-cleavage is 0.14.

Turning to GGCAGAGCUCAACACAGCGUGUAAAAGUGGCUGUUGCUAGACUGCC, the self-cleavage was determined as 0.54.

Regarding GGCAGAGCUUAUCACACCGUGGCAAAGUGGCUGUUGCUAGACUGCC, the self-cleavage was found to be 0.11.

Regarding GACAGAGCUCAACACACCGUGGCUUAGUGGCUGUGGCUAGACUGCC, the self-cleavage stood at 0.53.

For GGGAGUGCUCAACAGAGCUUGGCAAAGUGGCUGUGGCUAGACUGCC, the self-cleavage is 0.05.

On to GGCAGAGCUUAACACAGCGUGGCAAAGUCGGUGUGGGUCGGCUGCC, for which the self-cleavage came out at 0.02.

Consider GGCAGAGGUCACAACAGCAUGGCAAAGUGGCUGUGGCUAGACCGCC, for which the self-cleavage turned out to be 0.01.

Regarding GGCAGAUCUCAACACGGCGUGGCGAAAUGUCUGUGGCUAGACUGCC, the self-cleavage came to 0.01.

Take GGCAGAGCUCAACAUAGCGUGGCAAAAUGGCUAUGGCUAGACUGCC: the self-cleavage turned out to be 2.03.

With GGCAGAGCUCAACACAGUGUGGCAAAGUGGCUGUGGUCAUAAUGCC, the self-cleavage worked out at 0.04.

For GGCCGAGCUCACCACAGCGUGGCAAAGUCGUUGUGGCUAGACUGCC, the self-cleavage worked out at 0.04.

With GGCAUAGCUCAAAACAGCGUGGCAGAGUGGCUGUAGCUAGACUGCC, the self-cleavage was 0.01.

Consider UGCAUAGCUCAACACAGCGUGGCAAAGUGACUGUGGCUAGACUGCC, for which the self-cleavage was 0.1.

For the variant GGCCGAGCUCAACACAGCGUUGCAAAGUGGCUGUGGCGAGACUGCC, the self-cleavage was 0.01.

In the case of GGCAGAGCCCAACACAGCGUGGCAAAGUGGCUGUGGUUAGACUCCG, the self-cleavage was determined as 0.03.

Turning to GGCAGAGCUCAACACUGCGUGGCAAAGUAGCUGUGGCAAGACUGCC, the self-cleavage was 0.25.

As for GGCAGAGAUCAACACAGCGUAUCAAAGUGGCUGUGGCUAGACUGCC, the self-cleavage turned out to be 0.22.

GGGAGAGCUCAGCACAGUGUGGCAAAGUGGCUGUGGCUAGACUGCC: the self-cleavage was 0.13.

In the case of GGCAGAGGUCAACACAGAGUGUCGAAGUGGCUGUGGCUAGACUGUC, the self-cleavage was determined as 0.02.

ACCAGAGCUCAACACAGCGUGGCAAAGUGGUUGUGUCUAGACAGCC: the self-cleavage came to 0.01.

GGCAAAGCUCACCACAGCGUGGGAAAGUGGAUGUGGCUAGUCUGCA: the self-cleavage amounted to 0.

Regarding GGAAGAGCUCAAUAUAGCGUGGCAAAGCGGCUGUGGCUAGACUGCC, the self-cleavage was 0.61.

Turning to GUCAGAGCUCAACACAGCGUGGCAAAGUGUCUGUGGAUAGACUUCC, the self-cleavage was 0.02.

Take GGCACAGCUCCUCACAGCGUGGCAAAGUGGCUGGGGCUAGACUGCC: the self-cleavage amounted to 0.02.

In the case of GGUAGAGCUCAACACAGCGUGGCAGCGCGGCUGUGGCUAGACUGCC, the self-cleavage was 0.11.

GGCAGAGCUCAACACAGCGUGGCAAAGUGGCUGUGGCGAUACUGUC: the self-cleavage worked out at 0.06.

As to GGCACAUCUCAACACAGCGUGGCAAAGUGGCAGUGGCUAGACUGCC, the self-cleavage stood at 0.21.

GGCAGAGCUCAACACGGCGUGGCAGAGUCGCUUUGGCUAGACUGCC: the self-cleavage came out at 0.03.

GGCAGAGCUCCACCCAGCGUGGCAAAGUGGCUUUGGCUAGACUGCC: the self-cleavage was determined as 0.02.

With GGCAGAGCUCAACACAGCGAGGCAAAGUGGCUGUGGCAAGAAUGCC, the self-cleavage came out at 0.01.

As for GGCAGAGCUCAAUACAGCGUGGCUUAGUGGCAGUGGCUAGUCUGCC, the self-cleavage came to 0.1.

As to GGCAUAGCUCACCACAGCGAGGCAAAGUGGCCGUGGCUAGACUGCC, the self-cleavage came out at 0.05.

Take GGUAGAGCUCAACACAGCGGGGAAAAGUGGCAGUGGCUAGACUGCC: the self-cleavage was 0.04.

On to GGCAGAGGUCAACACAGCGUGGCAAUGUGGCUGUGGCUAGUCUGCC, for which the self-cleavage came to 0.09.

Regarding GGCAGAGGUCAACACAGCUUGGCAAAGUGGCUGUGGCUAGACUGGC, the self-cleavage came to 0.02.

Regarding GGAAGAGCUCAACUCAGCGUGGAAAAGUGGCUGUGGCUAGACUGCC, the self-cleavage was 2.29.

Regarding CGCAGAGCUCAACACAUCGUGGCAAAGUGGCUGUGGCUAUUCUGCG, the self-cleavage came to 0.03.
